Reference: EP2245064B1

Target: human IL-4Rα on TF-1 cells (human) (UniProt P24394)
Experiment: cell-based or functional assay

Sequence of UniProt P24394 (P24394 26-825): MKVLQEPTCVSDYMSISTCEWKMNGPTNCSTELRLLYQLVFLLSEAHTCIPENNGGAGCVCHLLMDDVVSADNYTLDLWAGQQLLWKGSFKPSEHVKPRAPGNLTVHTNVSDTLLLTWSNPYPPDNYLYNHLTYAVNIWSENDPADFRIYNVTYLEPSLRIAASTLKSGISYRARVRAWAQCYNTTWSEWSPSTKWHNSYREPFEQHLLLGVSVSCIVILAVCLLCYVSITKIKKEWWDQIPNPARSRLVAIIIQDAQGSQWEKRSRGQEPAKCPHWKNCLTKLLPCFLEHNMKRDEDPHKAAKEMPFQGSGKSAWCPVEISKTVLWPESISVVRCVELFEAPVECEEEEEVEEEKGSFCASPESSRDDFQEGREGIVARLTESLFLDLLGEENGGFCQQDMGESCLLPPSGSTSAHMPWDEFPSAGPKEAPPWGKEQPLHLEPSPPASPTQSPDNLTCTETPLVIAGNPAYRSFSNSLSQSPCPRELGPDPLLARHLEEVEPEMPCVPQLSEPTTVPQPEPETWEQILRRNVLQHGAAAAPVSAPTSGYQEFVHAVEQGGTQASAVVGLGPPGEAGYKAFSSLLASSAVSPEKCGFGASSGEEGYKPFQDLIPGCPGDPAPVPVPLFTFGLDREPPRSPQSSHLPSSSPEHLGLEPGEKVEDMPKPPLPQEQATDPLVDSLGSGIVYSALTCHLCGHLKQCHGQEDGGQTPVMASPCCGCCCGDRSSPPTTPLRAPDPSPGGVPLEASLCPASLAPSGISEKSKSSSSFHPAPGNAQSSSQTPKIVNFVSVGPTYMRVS

IC50, IL-4 induced TF-1 cell proliferation: 0.0427 nM | IC50, IL-13 induced TF-1 cell proliferation: 0.0791 nM
B1: 12B5 benchmark antibody (antibody, from another filing, V domains shown)
VH: EVQLVQSGGGLVHPGGSLRLSCAGSGFTFSRNAMFWVRQAPGKGLEWVSGIGTGGATNYADSVKGRFTISRDNAKNSLYLQMNSLRAEDMAVYYCARGRYYFDYWGQGTLVTVSS
VL: [gap - about 100 residues]
